The record followed here is the supplement of paper PMC12217912.

B1: TEV protease; numbered along this chain (parent)
chain: MGESLFKGPRDYNPISSSICHLTNESDGHTTSLYGIGFGPFIITNKHLFRRNNGTLVVQSLHGVFKVKDTTTLQQHLVDGRDMIIIRMPKDFPPFPQKLKFREPQREERICLVTTNFQTKSMSSMVSDTSCTFPSGDGIFWKHWIQTKDGQCGSPLVSTRDGFIVGIHSASNFTNTNNYFTSVPKNFMELLTNQEAQQWVSGWRLNADSVLWGGHKVFMVKPEEPFQPVKEATQL

This assay covers variants of B1. Nature of the assay: raw area under fraction-flipped curve 0-4 h after induction (AUC4h, not background-subtracted), DNA-recorder readout of cleavage of the substrate (dimensionless); higher = more cleavage of the substrate by the protease variant. Particulars: temperature: 34 °C; time window: 0-4 h after rhamnose induction. As for the experimental part: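 In vivo DNA recorder in E. coli TOP10(DE3) ΔrhaA at 34 °C. Each TEVp single-site mutant (parent TEVp 0) is paired with a single-site variant of the 7-mer TEVs (canonical ENLYFQ|S). The substrate sits between flexible linkers in a Bxb1-sfGFP-TEVs-SsrA fusion, so cleavage stabilises Bxb1 and speeds flipping of a recombination array, read by NGS. The value is the raw area under the fraction-flipped curve over 0-4 h after rhamnose induction (AUC4h), with ≥20 reads per time point. It is not background-subtracted; inactive controls average about 0.047.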

This is one part of the list. The full chains were built here from the parent and the listed change. Values near 0.05 are background.
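Further: Bxb1 expression induced with 0.2% (w/v) L-rhamnose at OD600 near 0.5, cultures sampled hourly, flipped fraction per protease–substrate barcode pair counted by paired-end Illumina sequencing.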

Regarding MGESLFKGPRDYNPISSSICHLTNESDGHTTSLYGIGFGPFIITNKHLFRRNNGTLVVQSLHGVFKVKDTTTLQQHLVDGRDMIIIRMPKDFPPFPQKLKFREPQREERICLRTTNFQTKSMSSMVSDTSCTFPSGDGIFWKHWIQTKDGQCGSPLVSTRDGFIVGIHSASNFTNTNNYFTSVPKNFMELLTNQEAQQWVSGWRLNADSVLWGGHKVFMVKPEEPFQPVKEATQL [V113R], the “area with substrate ENAYFQS” value came out at 0.0619, the “area with substrate ENCYFQS” value was found to be 0.0537, the “area with substrate ENDYFQS” value stood at 0.0652 and the “area with substrate ENFYFQS” value was 0.0486. The “area with substrate ENGYFQS” value is 0.0668, the “area with substrate ENHYFQS” value is 0.0362, the “area with substrate ENIYFQS” value turned out to be 0.0667 and the “area with substrate ENKYFQS” value was 0.0535. In addition, the “area with substrate ENMYFQS” value worked out at 0.0648, the “area with substrate ENNYFQS” value was 0.0638, the “area with substrate ENPYFQS” value came out at 0.0629 and the “area with substrate ENQYFQS” value was found to be 0.0577. For the same variant, the “area with substrate ENRYFQS” value was determined as 0.0482, the “area with substrate ENSYFQS” value came out at 0.0541, the “area with substrate ENTYFQS” value came out at 0.0581 and the “area with substrate ENVYFQS” value turned out to be 0.063. The “area with substrate ENWYFQS” value is 0.0737.
With MGESLFKGPRDYNPISSSICHLTNESDGHTTSLYGIGFGPFIITNKHLFRRNNGTLVVQSLHGVFKVKDTTTLQQHLVDGRDMIIIRMPKDFPPFPQKLKFREPQREERICLITTNFQTKSMSSMVSDTSCTFPSGDGIFWKHWIQTKDGQCGSPLVSTRDGFIVGIHSASNFTNTNNYFTSVPKNFMELLTNQEAQQWVSGWRLNADSVLWGGHKVFMVKPEEPFQPVKEATQL [V113I], the “area with substrate ENAYFQS” value is 0.0608, the “area with substrate ENCYFQS” value was determined as 0.0435, the “area with substrate ENDYFQS” value worked out at 0.0423 and the “area with substrate ENEYFQS” value was 0.0702. The “area with substrate ENFYFQS” value is 0.0573, the “area with substrate ENNYFQS” value is 0.0662, the “area with substrate ENPYFQS” value amounted to 0.0809 and the “area with substrate ENSYFQS” value amounted to 0.0585. Further, the “area with substrate ENVYFQS” value was 0.0428, the “area with substrate ENWYFQS” value is 0.052 and the “area with substrate ENYYFQS” value turned out to be 0.0534.
As to MGESLFKGPRDYNPISSSICHLTNESDGHTTSLYGIGFGPFIITNKHLFRRNNGTLVVQSLHGVFKVKDTTTLQQHLVDGRDMIIIRMPKDFPPFPQKLKFREPQREERIPLVTTNFQTKSMSSMVSDTSCTFPSGDGIFWKHWIQTKDGQCGSPLVSTRDGFIVGIHSASNFTNTNNYFTSVPKNFMELLTNQEAQQWVSGWRLNADSVLWGGHKVFMVKPEEPFQPVKEATQL [C111P], the “area with substrate ENAYFQS” value stood at 0.0455, the “area with substrate ENCYFQS” value came to 0.0472, the “area with substrate ENDYFQS” value is 0.0558 and the “area with substrate ENGYFQS” value was 0.0571. Further, the “area with substrate ENHYFQS” value turned out to be 0.0663, the “area with substrate ENIYFQS” value stood at 0.0443, the “area with substrate ENMYFQS” value was 0.0524 and the “area with substrate ENQYFQS” value turned out to be 0.0593. The “area with substrate ENRYFQS” value stood at 0.0294.
MGESLFKGPRDYNPISSSICHLTNESDGHTTSLYGIGFGPFIITNKHLFRRNNGTLVVQSLHGVFKVKDTTTLQQHLVDGRDMIIIRMPKDFPPFPQKLKFREPQREEVICLVTTNFQTKSMSSMVSDTSCTFPSGDGIFWKHWIQTKDGQCGSPLVSTRDGFIVGIHSASNFTNTNNYFTSVPKNFMELLTNQEAQQWVSGWRLNADSVLWGGHKVFMVKPEEPFQPVKEATQL [R109V]: the “area with substrate ENAYFQS” value was found to be 0.0615, the “area with substrate ENCYFQS” value came to 0.0551, the “area with substrate ENDYFQS” value was determined as 0.068 and the “area with substrate ENEYFQS” value is 0.0622. The “area with substrate ENGYFQS” value came to 0.0658, the “area with substrate ENKYFQS” value was 0.063, the “area with substrate ENMYFQS” value came out at 0.0774 and the “area with substrate ENNYFQS” value came to 0.0554. The “area with substrate ENQYFQS” value worked out at 0.0586, the “area with substrate ENRYFQS” value was determined as 0.0537, the “area with substrate ENTYFQS” value is 0.0806 and the “area with substrate ENVYFQS” value was 0.0779. In addition, the “area with substrate ENYYFQS” value was 0.0408.
As to MGESLFKGPRDYNPISSSICHLTNESDGHTTSLYGIGFGPFIITNKHLFRRNNGTLVVQSLHGVFKVKDTTTLQQHLVDGRDMIIIRMPKDFPPFPQKLKLREPQREERICLVTTNFQTKSMSSMVSDTSCTFPSGDGIFWKHWIQTKDGQCGSPLVSTRDGFIVGIHSASNFTNTNNYFTSVPKNFMELLTNQEAQQWVSGWRLNADSVLWGGHKVFMVKPEEPFQPVKEATQL [F101L], the “area with substrate ENAYFQS” value amounted to 0.057, the “area with substrate ENCYFQS” value came to 0.0633, the “area with substrate ENDYFQS” value stood at 0.0559 and the “area with substrate ENEYFQS” value amounted to 0.0641. Further, the “area with substrate ENGYFQS” value worked out at 0.0485, the “area with substrate ENIYFQS” value is 0.0975, the “area with substrate ENKYFQS” value was 0.0463 and the “area with substrate ENMYFQS” value amounted to 0.0719. Moreover, the “area with substrate ENQYFQS” value amounted to 0.0526, the “area with substrate ENSYFQS” value was determined as 0.063, the “area with substrate ENTYFQS” value was determined as 0.0607 and the “area with substrate ENVYFQS” value was 0.066. In addition, the “area with substrate ENYYFQS” value amounted to 0.0782.
MGESLFKGPRDYNPISSSICHLTNESDGHTTSLYGIGFGPFIITNKHLFRRNNGTLVVQSLHGVFKVKDTTTLQQHLVDGRDMIIIRMPKDFPPFPQKLKCREPQREERICLVTTNFQTKSMSSMVSDTSCTFPSGDGIFWKHWIQTKDGQCGSPLVSTRDGFIVGIHSASNFTNTNNYFTSVPKNFMELLTNQEAQQWVSGWRLNADSVLWGGHKVFMVKPEEPFQPVKEATQL [F101C]: the “area with substrate ENAYFQS” value worked out at 0.0523, the “area with substrate ENDYFQS” value was found to be 0.0656, the “area with substrate ENEYFQS” value came to 0.0538 and the “area with substrate ENFYFQS” value came out at 0.0538. Moreover, the “area with substrate ENGYFQS” value was found to be 0.0759, the “area with substrate ENHYFQS” value is 0.0591, the “area with substrate ENKYFQS” value stood at 0.06 and the “area with substrate ENMYFQS” value is 0.0598. Also, the “area with substrate ENNYFQS” value came to 0.059, the “area with substrate ENPYFQS” value was 0.0661, the “area with substrate ENQYFQS” value is 0.0614 and the “area with substrate ENRYFQS” value is 0.0587. Besides, the “area with substrate ENTYFQS” value was 0.0621, the “area with substrate ENVYFQS” value is 0.047 and the “area with substrate ENWYFQS” value stood at 0.0583.
Consider MGESLFKGPRDYNPISSSICHLTNESDGHTTSLYGIGFGPFIITNKHLFRRNNGTLVVQSLHGVFKVKDTTTLQQHLVDGRDMIIIRMPKDFPPFPQKLCFREPQREERICLVTTNFQTKSMSSMVSDTSCTFPSGDGIFWKHWIQTKDGQCGSPLVSTRDGFIVGIHSASNFTNTNNYFTSVPKNFMELLTNQEAQQWVSGWRLNADSVLWGGHKVFMVKPEEPFQPVKEATQL [K100C], for which the “area with substrate ENAYFQS” value was 0.0587, the “area with substrate ENCYFQS” value worked out at 0.0549, the “area with substrate ENDYFQS” value came out at 0.0744 and the “area with substrate ENEYFQS” value was 0.0832. Moreover, the “area with substrate ENFYFQS” value turned out to be 0.071, the “area with substrate ENGYFQS” value worked out at 0.0723, the “area with substrate ENKYFQS” value was determined as 0.0625 and the “area with substrate ENNYFQS” value was 0.0506. Further, the “area with substrate ENPYFQS” value turned out to be 0.05, the “area with substrate ENQYFQS” value was determined as 0.0476, the “area with substrate ENRYFQS” value was found to be 0.0577 and the “area with substrate ENSYFQS” value was found to be 0.131. The “area with substrate ENTYFQS” value stood at 0.0664 and the “area with substrate ENVYFQS” value was found to be 0.0736.
With MGESLFKGPRDYNPISSSICHLTNESDGHTTSLYGIGFGPFIITNKHLFRRNNGTLVVQSLHGVFKVKDTTTLQQHLVDGRDMIIIRMPKDFPPFPQKLKFREPSREERICLVTTNFQTKSMSSMVSDTSCTFPSGDGIFWKHWIQTKDGQCGSPLVSTRDGFIVGIHSASNFTNTNNYFTSVPKNFMELLTNQEAQQWVSGWRLNADSVLWGGHKVFMVKPEEPFQPVKEATQL [Q105S], the “area with substrate ENAYFQS” value was 0.0662, the “area with substrate ENDYFQS” value is 0.0602, the “area with substrate ENFYFQS” value was 0.0713 and the “area with substrate ENIYFQS” value stood at 0.102. Also, the “area with substrate ENKYFQS” value came to 0.0581, the “area with substrate ENMYFQS” value is 0.0846, the “area with substrate ENQYFQS” value is 0.0519 and the “area with substrate ENSYFQS” value is 0.0551. For the same variant, the “area with substrate ENVYFQS” value is 0.086 and the “area with substrate ENWYFQS” value was 0.0549.
Take MGESLFKGPRDYNPISSSICHLTNESDGHTTSLYGIGFGPFIITNKHLFRRNNGTLVVQSLHGVFKVKDTTTLQQHLVDGRDMIIIRMPKDFPPFPQKLKFREPQREERICLVETNFQTKSMSSMVSDTSCTFPSGDGIFWKHWIQTKDGQCGSPLVSTRDGFIVGIHSASNFTNTNNYFTSVPKNFMELLTNQEAQQWVSGWRLNADSVLWGGHKVFMVKPEEPFQPVKEATQL [T114E]: the “area with substrate ENAYFQS” value was determined as 0.089, the “area with substrate ENDYFQS” value was 0.0669, the “area with substrate ENEYFQS” value was 0.0625 and the “area with substrate ENGYFQS” value came to 0.07. The “area with substrate ENHYFQS” value came to 0.0633, the “area with substrate ENKYFQS” value is 0.0606, the “area with substrate ENNYFQS” value turned out to be 0.0563 and the “area with substrate ENQYFQS” value came to 0.0587. Besides, the “area with substrate ENRYFQS” value was 0.0546, the “area with substrate ENSYFQS” value was determined as 0.0612 and the “area with substrate ENWYFQS” value amounted to 0.0508.
